Test results reported in the supplement of paper PMC6089552.
About 300 (9.4%) of roughly 3,200 compounds showed activity. The list shows a part of the results, in another mix than the full data.

System: A673/TR/shEF
Assay: cell viability (LOESS-normalised, relative to median of negative controls) (log2 ratio); higher = more viable cells (less compound effect), active = hit call of the paper (over 3 MAD below the median)
Conditions: treatment time: 72 h
In short: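 Doxycycline, present or absent from 24 h before compounds, was used to induce EWS-FLI1 shRNA knockdown in A673/TR/shEF Ewing sarcoma cells at 1,500 per well in 384-well plates. Cells then received library compounds at two or more concentrations, or DMSO controls, for three days. Viability was measured by CellTiter-Glo luminescence on an Envision reader, and per-plate LOESS correction, division by the negative-control median and log2 transformation followed.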

[1] = 0.25 µM, library screen: screen1, EWS-FLI1 expression: high (no doxycycline)
[2] = 0.25 µM, library screen: screen1, EWS-FLI1 expression: low (doxycycline-induced shRNA knockdown)
[3] = 0.25 µM, library screen: screen2, EWS-FLI1 expression: high (no doxycycline)
[4] = 0.25 µM, library screen: screen2, EWS-FLI1 expression: low (doxycycline-induced shRNA knockdown)
[5] = 2.5 µM, library screen: screen1, EWS-FLI1 expression: high (no doxycycline)
[6] = 2.5 µM, library screen: screen1, EWS-FLI1 expression: low (doxycycline-induced shRNA knockdown)
[7] = 2.5 µM, library screen: screen2, EWS-FLI1 expression: high (no doxycycline)
[8] = 2.5 µM, library screen: screen2, EWS-FLI1 expression: low (doxycycline-induced shRNA knockdown)
[9] = 0.025 µM, library screen: screen1, EWS-FLI1 expression: high (no doxycycline)
[10] = 0.025 µM, library screen: screen1, EWS-FLI1 expression: low (doxycycline-induced shRNA knockdown)
[11] = 25 µM, library screen: screen1, EWS-FLI1 expression: high (no doxycycline)
[12] = 25 µM, library screen: screen1, EWS-FLI1 expression: low (doxycycline-induced shRNA knockdown)
[13] = 0.103 µM, library screen: screen3, EWS-FLI1 expression: high (no doxycycline)
[14] = 0.103 µM, library screen: screen3, EWS-FLI1 expression: low (doxycycline-induced shRNA knockdown)
[15] = 0.308 µM, library screen: screen3, EWS-FLI1 expression: high (no doxycycline)
[16] = 0.308 µM, library screen: screen3, EWS-FLI1 expression: low (doxycycline-induced shRNA knockdown)
[17] = 0.926 µM, library screen: screen3, EWS-FLI1 expression: high (no doxycycline)
[18] = 0.926 µM, library screen: screen3, EWS-FLI1 expression: low (doxycycline-induced shRNA knockdown)
[19] = 2.8 µM, library screen: screen3, EWS-FLI1 expression: high (no doxycycline)
[20] = 2.8 µM, library screen: screen3, EWS-FLI1 expression: low (doxycycline-induced shRNA knockdown)
[21] = 8.3 µM, library screen: screen3, EWS-FLI1 expression: high (no doxycycline)
[22] = 8.3 µM, library screen: screen3, EWS-FLI1 expression: low (doxycycline-induced shRNA knockdown)
[23] = 25 µM, library screen: screen3, EWS-FLI1 expression: high (no doxycycline)
[24] = 25 µM, library screen: screen3, EWS-FLI1 expression: low (doxycycline-induced shRNA knockdown)

Measured: cell viability (log2)

O=C(O)c1cc2cc(Cc3cccnc3)ccc2o1
inactive: [1] 0.0601 | [2] 0.0474 | [3] 0.277 | [4] 0.0253 | [5] 0.137 | [6] 0.0202 | [7] 0.00879 | [8] 0.149

C=C1c2cccc(O)c2C(O)=C2C(=O)[C@]3(O)C(O)=C(C(N)=O)C(=O)[C@@H](N(C)C)[C@@H]3[C@@H](O)[C@H]12
active: [1] -0.16 | [5] -0.0967

C[C@@H]1[C@H]2[C@H](O[C@@H]3O[C@H](CO)[C@@H](O)[C@H](O)[C@H]3O)OC=C(C(=O)O)[C@H]2C[C@@H]1O
inactive: [1] 0.0698 | [2] 0.0626 | [5] 0.106 | [6] -0.0365

O=C(O)c1cc(N(Cc2ccccc2O)Cc2cc(O)ccc2O)ccc1O
inactive: [9] 0.17 | [10] 0.0496 | [1] 0.173 | [2] 0.132 | [5] 0.0556 | [6] 0.0297 | [11] 0.0931 | [12] 0.144

C[N+]1(C)[C@@H]2CC(OC(=O)C(O)(c3cccs3)c3cccs3)C[C@H]1[C@@H]1O[C@@H]12 (stereo partly specified)
inactive: [13] -0.0419 | [14] -0.0363 | [15] -0.000855 | [16] 0.0413 | [17] 0.0247 | [18] 0.0262 | [19] 0.0531 | [20] 0.0434 | [21] 0.0573 | [22] 0.11 | [23] 0.0805 | [24] 0.115

COc1ccc(C2=N[C@@H](c3ccc(Cl)cc3)[C@@H](c3ccc(Cl)cc3)N2C(=O)N2CCNC(=O)C2)c(OC(C)C)c1
inactive: [13] 0.0246 | [14] -0.0154 | [15] 0.0154 | [16] 0.057 | [17] 0.0206 | [18] 0.0793 | [19] 0.0375 | [20] 0.0497 | [21] -0.059 | [22] 0.0821 | [23] 0.0113 | [24] 0.036

Oc1cccc(O)c1
inactive: [1] 0.0925 | [2] 0.0875 | [5] 0.142 | [6] 0.202

Cc1cc(O)cc(C)c1Cl
inactive: [1] 0.056 | [2] 0.0879 | [5] 0.127 | [6] 0.149

Cc1cn(-c2cc(NC(=O)c3ccc(C)c(Nc4nccc(-c5cccnc5)n4)c3)cc(C(F)(F)F)c2)cn1
inactive: [13] 0.0821 | [14] 0.114 | [15] 0.0305 | [16] 0.0807 | [17] 0.00582 | [18] 0.101 | [19] -0.0305 | [20] 0.116 | [21] 0.0184 | [22] 0.0705 | [23] -0.057 | [24] 0.0892

O=C(O)c1cc(=O)c2c(Cl)cc(Cl)cc2[nH]1
inactive: [1] 0.0846 | [2] 0.135 | [3] -0.00888 | [4] 0.0554 | [5] 0.118 | [6] 0.0923 | [7] 0.158 | [8] 0.127

O=Nc1ccc2oc(=O)ccc2c1
inactive: [3] 0.113 | [4] 0.142 | [7] 0.0947 | [8] 0.064

Brc1cccc(CN2CCN(Cc3cccnc3)CC2)c1
inactive: [1] 0.0662 | [2] 0.0708 | [5] 0.0924 | [6] 0.02

O=[N+]([O-])c1ccc(CSc2ncnc3c2ncn3[C@@H]2O[C@H](CO)[C@@H](O)[C@H]2O)cc1
inactive: [3] 0.1 | [4] 0.125 | [7] 0.102 | [8] 0.0798

O=C(O)c1cn(-c2ccccc2)nc1-c1ccc(F)cc1
inactive: [1] 0.0839 | [2] -0.00121 | [5] 0.0458 | [6] -0.135

CC(C)(C)c1ccc(S(=O)(=O)/C=C/C#N)cc1
active: [7] -0.121

CC(N)CCCC(C)(C)O (stereo unspecified)
inactive: [1] 0.0899 | [2] 0.138 | [5] 0.00546 | [6] 0.0221

CC(C)OC(=O)C(C)(C)Oc1ccc(C(=O)c2ccc(Cl)cc2)cc1
inactive: [13] 0.0904 | [14] 0.0244 | [1] 0.109 | [2] 0.0611 | [3] 0.188 | [4] 0.0261 | [15] 0.116 | [16] 0.0872 | [17] 0.0421 | [18] 0.0755 | [5] 0.186 | [6] 0.142 | [7] 0.0575 | [8] 0.0327 | [19] 0.032 | [20] 0.0509 | [21] 0.0776 | [22] 0.0557 | [23] 0.0748 | [24] 0.0945

NC(=O)CC[C@H](N)C(=O)O
inactive: [13] 0.0442 | [14] 0.0656 | [1] 0.128 | [2] 0.0229 | [3] 0.13 | [4] 0.0668 | [15] 0.114 | [16] 0.0554 | [17] 0.0561 | [18] 0.113 | [5] 0.12 | [6] 0.0891 | [7] 0.115 | [8] 0.0189 | [19] 0.182 | [20] 0.148 | [21] 0.111 | [22] 0.0635 | [23] 0.145 | [24] 0.14

O=C(CCNNC(=O)c1ccncc1)NCc1ccccc1
inactive: [3] 0.188 | [4] 0.0772 | [7] 0.124 | [8] 0.0622

CCCn1c(=O)c2[nH]c(C3CCCC3)nc2n(CCC)c1=O
inactive: [1] 0.0747 | [2] 0.0483 | [3] 0.168 | [4] 0.0953 | [5] 0.128 | [6] 0.132 | [7] 0.141 | [8] 0.106

CCC(=O)c1ccc2c(c1)N(CCCN(C)C)c1ccccc1S2
inactive: [3] 0.24 | [4] 0.09 | [7] 0.196 | [8] 0.146

Cc1nc2ccccn2c(=O)c1CCN1CCC(C(=O)c2ccc(F)cc2)CC1
inactive: [1] 0.119 | [2] 0.184 | [3] 0.229 | [4] 0.127 | [5] 0.124 | [6] 0.101 | [7] 0.243 | [8] 0.107

COC1CCC2(C)C(CCC3C2CCC2(C)C(C(C)CCCC(C)C)CCC32)C1 (stereo unspecified)
inactive: [1] -0.00918 | [2] 0.0236 | [5] 0.0903 | [6] 0.091

C#Cc1cccc(Nc2ncnc3cc(OCCOC)c(OCCO)cc23)c1
inactive: [13] -0.021 | [14] 0.0228 | [15] -0.00557 | [16] 0.0307 | [17] -0.00846 | [18] 0.063 | [19] 0.0648 | [20] 0.0201 | [21] -0.0295 | [22] 0.0604 | [23] -0.0784 | [24] -0.0862

NC(=O)c1cnccn1
inactive: [13] 0.0912 | [14] 0.0273 | [1] 0.0879 | [2] 0.0742 | [3] 0.0855 | [4] 0.071 | [15] 0.124 | [16] 0.0104 | [17] 0.114 | [18] 0.0339 | [5] 0.115 | [6] 0.137 | [7] 0.152 | [8] 0.0505 | [19] 0.201 | [20] 0.076 | [21] 0.0479 | [22] 0.0421 | [23] 0.139 | [24] 0.066

CC1(C)CC(=O)C2=C(C1)Nc1ccccc1N(C(=O)Cc1ccc(Cl)cc1)C2c1cccnc1 (stereo unspecified)
inactive: [1] 0.0404 | [2] 0.0353 | [5] 0.127 | [6] 0.0963

Cc1cc2ncc(-c3ccccc3)nc2cc1C
active: [5] -0.0894 | [11] -0.147
inactive: [9] 0.21 | [10] 0.0761 | [1] 0.265 | [2] 0.0996 | [6] 0.141 | [12] 0.0902

CC(=O)O[C@H]1C(=O)[C@@]2(C)[C@H]([C@H](OC(=O)c3ccccc3)[C@]3(O)C[C@H](OC(=O)[C@H](O)[C@@H](NC(=O)c4ccccc4)c4ccccc4)C(C)=C1C3(C)C)[C@]1(OC(C)=O)CO[C@@H]1C[C@@H]2O
active: [13] -2.57 | [14] -0.853 | [1] -3.63 | [2] -1.46 | [3] -2.49 | [4] -0.868 | [15] -2.24 | [16] -0.787 | [17] -2.68 | [18] -0.947 | [5] -4.22 | [6] -1.51 | [7] -2.93 | [8] -1 | [19] -2.59 | [20] -1.11 | [21] -2.75 | [22] -1.03 | [23] -2.68 | [24] -1.1

NC1CONC1=O (stereo unspecified)
inactive: [3] 0.18 | [4] 0.11 | [7] 0.099 | [8] 0.0745

COc1cccc2c1C(=O)c1c(O)c3c(c(O)c1C2=O)C[C@@](O)(C(=O)CO)C[C@@H]3O[C@H]1C[C@H](N)[C@@H](O)[C@H](C)O1
active: [13] -0.347 | [14] -0.195 | [15] -1.12 | [16] -0.399 | [17] -1.58 | [18] -0.41 | [19] -3.26 | [20] -1.19 | [21] -4.26 | [22] -4.27 | [23] -4.26 | [24] -4.25

C/C=C/c1ccc(OC)cc1
inactive: [1] 0.0922 | [2] 0.0583 | [5] 0.101 | [6] 0.0905

C=C(C)[C@@H]1CC[C@]2(CO)CC[C@]3(C)[C@H](CC[C@@H]4[C@@]5(C)CC[C@H](O)C(C)(C)[C@@H]5CC[C@]43C)[C@@H]12
inactive: [1] -0.00995 | [2] -0.0271 | [5] 0.0576 | [6] -0.00146
